# Data taken from PubChem BioAssay (Tox21).
# Where “and” joins values, the source holds several entries; their conditions need not be identical. Equal values may be shown once. Inconclusive results, whose numbers are uncertain, are shown with a selection of clear calls. For some assays here: Where the call is inconclusive, the potency comes from a doubtful curve fit. A structure can be active in one record and inactive in another. Calls of active or inactive are those of the source. Unless noted, calls come from the whole dose curve; as a rule, active = well fitted curve in the direction sought with a large enough effect in the repeat runs; inconclusive = weak or mixed curves; inactive = no such curve, though single readings can be large; an effect the other way counts as inactive or inconclusive.
# Assays:
# [1] = target: Aryl hydrocarbon receptor (Homo sapiens) (UniProt P35869); assay: qHTS assay to identify small molecule that activate the aryl hydrocarbon receptor (AhR) signaling pathway (AID 743085); note: nearly all actives have a fitted effect of over 15% in size;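 for activation: HG2L7.5c1 human HepG2 liver cells with stably integrated DRE-driven firefly reporter; % is set by controls: 0 for no effect and ±100 for the full control effect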
# Summary of the method: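 Luminescence (ONE-Glo) from a dioxin-responsive-element luciferase reporter in HG2L7.5c1 HepG2 cells after 24 hr compound exposure at 37C; viability measured by CellTiter-Fluor fluorescence beforehand.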
# [2] = target: Peroxisome proliferator-activated receptor gamma (Homo sapiens) (UniProt P37231); assay: qHTS assay to identify small molecule antagonists of the peroxisome proliferator-activated receptor gamma (PPARg) signaling pathway (AID 743191; calls by dose curve; note: nearly all actives have a fitted effect of over 30% in size; for ratio activity, negative = inhibition: % is set by controls: 0 for no effect and ±100 for the full control effect); details: HEK293H PPARg-UAS-bla, beta-lactamase ratio, antagonist, 17 h; ratio activity, negative = inhibition: at 62.6 µM (top of the series) unless noted
# Summary of the method: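 GeneBLAzer PPARg UAS-bla HEK293H cells carrying a UAS-driven beta-lactamase reporter were plated at 3000 cells/well, preincubated 5 h at 37C, then given compound for 17 h at 37C; LiveBLAzer B/G FRET substrate was read after 1 h at room temperature.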
# [3] = qHTS assay for small molecule agonists of the antioxidant response element (ARE) signaling pathway (AID 743202; active = well fitted activation curve with a large enough effect in the signal ratio in the repeat runs, not every such curve was filed as active; inconclusive = weak or mixed curves, or effect the other way; inactive = no such curve, though single readings can be large or run the other way; the % refers to the signal ratio; for activation: % is set by controls: 0 for no effect and ±100 for the full control effect); details: HepG2 ARE-bla reporter, beta-lactamase FRET, 16 h; activation: at 73.3 µM (top of the series) unless noted
# Summary of the method: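 Following a 16 h, 37 C exposure of reporter HepG2 cells (ARE-driven beta-lactamase, 2,000 cells/well) to compounds, FRET substrate was applied for 2 h at room temperature and fluorescence intensity recorded.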
# [4] = target: Bile acid receptor (Homo sapiens) (UniProt Q96RI1); assay: qHTS assay to identify small molecule antagonists of the farnesoid-X-receptor (FXR) signaling pathway (AID 743217; active = well fitted inhibition curve with a large enough effect in the signal ratio in the repeat runs, not every such curve was filed as active; inconclusive = weak or mixed curves, or effect the other way; inactive = no such curve, though single readings can be large or run the other way; the % refers to the signal ratio); details: HEK293T FXR-UAS-bla, beta-lactamase ratio, CDCA-stimulated, 16 h; activity change, negative = inhibition: at 62.6 µM (top of the series) unless noted
# Summary of the method: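 Cells carrying a UAS-driven beta-lactamase reporter (GeneBLAzer FXR-UAS-bla HEK 293T) were plated and rested 5 h at 37 °C. Compounds in DMSO were added alongside chenodeoxycholic acid agonist at 50 uM final and left 16 h at 37 °C before FRET substrate readout.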
# [5] = qHTS assay to identify small molecule antagonists of the peroxisome proliferator-activated receptor gamma (PPARg) signaling pathway - cell viability counter screen (AID 743194); details: PPARg-bla HEK293H viability, CellTiter-Glo luminescence, 17 h, co-treated with 50 nM rosiglitazone; activity change, negative = cytotoxicity: at 62.6 µM (top of the series) unless noted; note: nearly all actives have a fitted effect of over 55% in size
# Summary of the method: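 PPARg-UAS-bla HEK293H cells were plated, rested 5 h at 37 C, then treated with compounds plus rosiglitazone (50 nM final) for 17 h at 37 C; viability was then read by CellTiter-Glo luminescence after 30 min at room temperature.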
# [6] = qHTS assay to identify small molecule agonists of the peroxisome proliferator-activated receptor delta (PPARd) signaling pathway - cell viability counter screen (AID 743211); details: PPARd-bla HEK293H viability, CellTiter-Glo luminescence, 17 h; activity change, negative = cytotoxicity: at 62.6 µM (top of the series) unless noted; note: nearly all actives have a fitted effect of over 55% in size; for activity change, negative = cytotoxicity: % is set by controls: 0 for no effect and ±100 for the full control effect
# Summary of the method: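 Viability was measured as CellTiter-Glo luminescence (30 min, room temperature) in the same wells as the beta-lactamase readout. GeneBLAzer PPARd UAS-bla HEK293H cells received compound after 5 h plating and were incubated 17 h at 37 C.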
# [7] = qHTS assay to identify small molecule antagonists of the peroxisome proliferator-activated receptor delta (PPARd) signaling pathway - cell viability counter screen (AID 743213); details: PPARd-bla HEK293H viability, CellTiter-Glo luminescence, 17 h; viability change, negative = cytotoxic: at 62 µM (top of the series) unless noted; note: nearly all actives have a fitted effect of over 50% in size
# Summary of the method: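 Viability counter-screen, qHTS format: PPARd-bla HEK293H, L165041 300 nM final, 17 h compound exposure at 37 C, CellTiter-Glo luminescence after 30 min RT.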
# [8] = target: Peroxisome proliferator-activated receptor delta (Homo sapiens) (UniProt Q03181); assay: qHTS assay to identify small molecule antagonists of the peroxisome proliferator-activated receptor delta (PPARd) signaling pathway (AID 743215; active = well fitted inhibition curve with a large enough effect in the signal ratio in the repeat runs, not every such curve was filed as active; inconclusive = weak or mixed curves, or effect the other way; inactive = no such curve, though single readings can be large or run the other way; the % refers to the signal ratio;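 note: cells stimulated with agonist L165041 at 300 nM final during compound exposure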); details: HEK293H PPARd-UAS-bla, beta-lactamase FRET ratio, antagonist, 17 h; ratio activity, negative = inhibition: at 62 µM (top of the series) unless noted
# Summary of the method: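 Cells: HEK293H with a UAS-driven beta-lactamase reporter responsive to PPARd. Compounds were co-added with L165041 (300 nM, final) and incubated 17 h at 37 C before a 2 h room-temperature FRET substrate step and fluorescence reading.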
# [9] = target: Bile acid receptor (Homo sapiens) (UniProt Q96RI1); assay: qHTS assay to identify small molecule agonists of the farnesoid-X-receptor (FXR) signaling pathway (AID 743220; active = well fitted activation curve with a large enough effect in the signal ratio in the repeat runs, not every such curve was filed as active; inconclusive = weak or mixed curves, or effect the other way; the % refers to the signal ratio); details: HEK293T FXR-UAS-bla, beta-lactamase FRET ratio, 16 h; activation: at 62.6 µM (top of the series) unless noted
# Summary of the method: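 FXR-UAS-bla HEK 293T cells carrying a UAS-driven beta-lactamase reporter were plated for 5 h at 37C/5% CO2, then exposed to DMSO-dissolved Tox21 10K compounds for 16 h at 37C. A LiveBLAzer B/G FRET substrate was loaded for 2 h at room temperature before fluorescence reading.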
# [10] = target: Vitamin D3 receptor (Homo sapiens) (UniProt P11473); assay: qHTS assay to identify small molecule antagonists of the vitamin D receptor (VDR) signaling pathway (AID 743223; active = well fitted inhibition curve with a large enough effect in the signal ratio in the repeat runs, not every such curve was filed as active; inconclusive = weak or mixed curves, or effect the other way; inactive = no such curve, though single readings can be large or run the other way; the % refers to the signal ratio); details: VDR-UAS-bla HEK293T, beta-lactamase FRET ratio, 16 h; activity change, negative = inhibition: at 61 µM (top of the series) unless noted
# Summary of the method: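 Antagonist mode: compound added to VDR-bla cells alongside agonist 1alpha,25-dihydroxyvitamin D3 (3 nM final), incubation 16 h at 37C. Read-out is LiveBLAzer FRET fluorescence, 2 h at room temperature.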
# [11] = qHTS assay to identify small molecule agonists of the vitamin D receptor (VDR) signaling pathway - cell viability counter screen (AID 743224); details: VDR-bla HEK293T viability, CellTiter-Glo luminescence, 16 h; activity change, negative = cytotoxicity: at 62.6 µM (top of the series); note: nearly all actives have a fitted effect of over 50% in size
# Summary of the method: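 Cells: VDR-bla, 2,000/well, settled 4 h. Treatment: compounds in DMSO, 16 h, 37C/5% CO2. Readout: CellTiter-Glo luminescence after 30 min RT.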
# [12] = target: Peroxisome proliferator-activated receptor gamma (Homo sapiens) (UniProt P37231); assay: qHTS assay to identify small molecule agonists of the peroxisome proliferator-activated receptor gamma (PPARg) signaling pathway (AID 743094; active = well fitted activation curve with a large enough effect in the signal ratio in the repeat runs, not every such curve was filed as active; inconclusive = weak or mixed curves, or effect the other way; inactive = no such curve, though single readings can be large or run the other way; the % refers to the signal ratio); details: HEK293H PPARg-UAS-bla, beta-lactamase FRET ratio, 17 h; activation: at 57 µM (top of the series) unless noted
# Summary of the method: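 Cells from the PPARg UAS-bla HEK293H line are plated and incubated 5 h at 37C. Compounds in DMSO are pinned in and left 17 h at 37C. LiveBLAzer B/G substrate is then added for 1 h at room temperature before fluorescence is measured.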
# [13] = target: Peroxisome proliferator-activated receptor delta (Homo sapiens) (UniProt Q03181); assay: qHTS assay to identify small molecule agonists of the peroxisome proliferator-activated receptor delta (PPARd) signaling pathway (AID 743212; calls by dose curve); details: HEK293H PPARd-UAS-bla, beta-lactamase FRET ratio, 17 h; activation: at 62.6 µM (top of the series) unless noted
# Summary of the method: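 Beta-lactamase reporter read by fluorescence (LiveBLAzer B/G FRET, 2 h, room temperature). Test agents, in DMSO, incubated at 37 C with PPARd-bla HEK293H cells.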
# [14] = qHTS assay to identify small molecule agonists of the farnesoid-X-receptor (FXR) signaling pathway - cell viability counter screen (AID 743218); details: FXR-bla HEK293T viability, CellTiter-Glo luminescence, 16 h; note: nearly all actives have a fitted effect of over 45% in size
# Summary of the method: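 Cells were seeded, left 5 h at 37 C and 5% CO2, then dosed with compound in DMSO for 16 h. After the beta-lactamase FRET read, CellTiter-Glo was added and luminescence measured 30 min later.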
# [15] = target: Vitamin D3 receptor (Homo sapiens) (UniProt P11473); assay: qHTS assay to identify small molecule agonists of the vitamin D receptor (VDR) signaling pathway (AID 743222; calls by dose curve); details: HEK293T VDR-UAS-bla, beta-lactamase FRET ratio, 16 h; activation: at 63.5 µM (top of the series) unless noted
# Summary of the method: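 Cells carrying a VDR-driven beta-lactamase reporter are seeded at 2,000 per well and rested 4 h. Compounds in DMSO are added for 16 h at 37C, and FRET substrate fluorescence is measured after 2 h at room temperature.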
# [16] = qHTS assay to identify small molecule antagonists of the farnesoid-X-receptor (FXR) signaling pathway - cell viability counter screen (AID 743221; active = well fitted cell-killing curve with a large enough effect in the repeat runs, not every such curve was filed as active; inconclusive = weak or mixed curves, or effect the other way; inactive = no such curve, though single readings can be large or run the other way; note: nearly all actives have a fitted effect of over 50% in size); details: FXR-bla HEK293T viability, CellTiter-Glo luminescence, 16 h; activity change, negative = cytotoxicity: at 62.6 µM (top of the series) unless noted
# Summary of the method: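 Cytotoxicity counter screen run in the FXR-bla reporter wells: HEK 293T cells exposed to compound with 50 uM (final) chenodeoxycholic acid for 16 h, 37 C, then viability measured by CellTiter-Glo luminescence after 30 min, room temperature.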
# Potency is the fitted concentration of half-maximal effect; tags give direction and shape of the fitted curve or compound fluorescence and quenching.
# Chain of UniProt P37231 (P37231 whole entry, looked up): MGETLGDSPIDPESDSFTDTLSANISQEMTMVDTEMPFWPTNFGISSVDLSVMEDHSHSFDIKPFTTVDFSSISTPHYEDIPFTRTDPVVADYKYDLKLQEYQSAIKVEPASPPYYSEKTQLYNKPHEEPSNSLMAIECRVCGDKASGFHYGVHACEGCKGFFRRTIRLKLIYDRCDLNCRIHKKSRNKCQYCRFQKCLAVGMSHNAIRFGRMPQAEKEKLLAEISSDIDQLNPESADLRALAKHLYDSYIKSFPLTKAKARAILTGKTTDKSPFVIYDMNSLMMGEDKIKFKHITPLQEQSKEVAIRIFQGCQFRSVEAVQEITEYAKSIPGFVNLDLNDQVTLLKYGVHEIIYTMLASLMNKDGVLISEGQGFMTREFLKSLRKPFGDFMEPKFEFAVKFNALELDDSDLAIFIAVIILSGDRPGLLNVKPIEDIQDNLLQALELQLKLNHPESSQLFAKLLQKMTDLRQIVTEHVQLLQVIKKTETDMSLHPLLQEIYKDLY
# Chain of UniProt Q03181 (Q03181 whole entry, looked up): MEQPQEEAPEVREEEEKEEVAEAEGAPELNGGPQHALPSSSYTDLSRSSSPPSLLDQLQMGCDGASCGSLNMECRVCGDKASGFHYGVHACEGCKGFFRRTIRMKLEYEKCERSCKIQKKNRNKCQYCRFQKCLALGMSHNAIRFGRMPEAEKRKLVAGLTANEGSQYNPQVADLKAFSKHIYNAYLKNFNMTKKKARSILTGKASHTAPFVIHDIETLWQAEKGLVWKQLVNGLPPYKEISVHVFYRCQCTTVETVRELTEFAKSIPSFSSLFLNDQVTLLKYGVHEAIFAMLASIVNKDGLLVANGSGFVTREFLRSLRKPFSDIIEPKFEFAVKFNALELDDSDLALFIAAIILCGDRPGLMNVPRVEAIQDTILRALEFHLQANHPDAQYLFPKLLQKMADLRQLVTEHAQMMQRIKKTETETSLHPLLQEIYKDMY
# Chain of UniProt P11473 (P11473 whole entry, looked up): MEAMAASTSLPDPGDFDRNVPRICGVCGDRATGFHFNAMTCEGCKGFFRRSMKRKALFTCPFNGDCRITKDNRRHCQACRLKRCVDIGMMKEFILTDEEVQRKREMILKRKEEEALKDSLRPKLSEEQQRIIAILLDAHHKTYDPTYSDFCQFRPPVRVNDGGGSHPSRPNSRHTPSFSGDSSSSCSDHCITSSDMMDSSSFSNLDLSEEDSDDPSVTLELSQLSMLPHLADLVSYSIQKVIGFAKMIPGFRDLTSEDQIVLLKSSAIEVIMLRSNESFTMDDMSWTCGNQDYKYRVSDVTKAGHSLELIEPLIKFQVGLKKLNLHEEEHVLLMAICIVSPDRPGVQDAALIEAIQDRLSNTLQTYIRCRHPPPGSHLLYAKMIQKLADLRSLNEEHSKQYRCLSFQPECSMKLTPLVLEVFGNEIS
# Chain of UniProt P35869 (P35869 whole entry, looked up): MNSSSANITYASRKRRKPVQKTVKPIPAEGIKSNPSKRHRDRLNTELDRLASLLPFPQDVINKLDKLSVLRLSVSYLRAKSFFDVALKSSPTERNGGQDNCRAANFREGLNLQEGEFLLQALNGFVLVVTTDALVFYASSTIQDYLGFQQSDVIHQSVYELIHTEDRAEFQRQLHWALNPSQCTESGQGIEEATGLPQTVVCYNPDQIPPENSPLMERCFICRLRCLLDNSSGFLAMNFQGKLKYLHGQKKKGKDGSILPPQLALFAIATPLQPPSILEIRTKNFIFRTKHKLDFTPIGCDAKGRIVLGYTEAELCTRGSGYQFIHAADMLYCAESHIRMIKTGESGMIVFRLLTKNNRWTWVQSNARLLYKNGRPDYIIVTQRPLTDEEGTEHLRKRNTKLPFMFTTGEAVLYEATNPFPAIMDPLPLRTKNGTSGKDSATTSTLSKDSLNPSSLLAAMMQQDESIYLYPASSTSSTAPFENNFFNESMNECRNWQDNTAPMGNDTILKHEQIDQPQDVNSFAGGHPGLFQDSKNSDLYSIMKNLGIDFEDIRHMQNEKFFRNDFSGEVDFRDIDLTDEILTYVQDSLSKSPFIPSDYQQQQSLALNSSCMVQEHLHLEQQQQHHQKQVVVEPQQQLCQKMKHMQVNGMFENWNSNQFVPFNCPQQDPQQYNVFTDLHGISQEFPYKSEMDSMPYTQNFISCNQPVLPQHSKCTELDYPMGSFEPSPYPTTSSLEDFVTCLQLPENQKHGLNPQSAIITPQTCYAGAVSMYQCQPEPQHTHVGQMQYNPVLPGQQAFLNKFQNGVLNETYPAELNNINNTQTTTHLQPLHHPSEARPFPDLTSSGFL
# Chain of UniProt Q96RI1 (Q96RI1 whole entry, looked up): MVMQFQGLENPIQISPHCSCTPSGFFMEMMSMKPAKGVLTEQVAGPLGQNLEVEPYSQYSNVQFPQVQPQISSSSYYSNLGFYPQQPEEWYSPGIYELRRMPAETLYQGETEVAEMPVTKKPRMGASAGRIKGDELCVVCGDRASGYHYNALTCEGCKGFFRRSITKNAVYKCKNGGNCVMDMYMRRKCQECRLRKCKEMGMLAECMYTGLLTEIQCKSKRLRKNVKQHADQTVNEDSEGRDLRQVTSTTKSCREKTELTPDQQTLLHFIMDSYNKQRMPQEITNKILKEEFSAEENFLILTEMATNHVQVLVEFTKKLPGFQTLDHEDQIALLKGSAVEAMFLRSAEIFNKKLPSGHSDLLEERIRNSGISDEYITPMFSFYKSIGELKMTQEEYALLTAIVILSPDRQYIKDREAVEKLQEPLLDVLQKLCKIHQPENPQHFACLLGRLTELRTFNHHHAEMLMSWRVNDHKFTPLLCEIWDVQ
smiles,measurement,setting,value
CCN(C(=O)N(CC)c1ccccc1)c1ccccc1,Potency,[1],inactive
same,Potency,[2],inactive
same,Potency,[3],"inconclusive: 48.6 µM [rising, partial curve]"
Nc1ccc(Oc2ccc(N)c(N)c2)cc1,Potency,[1],active: 1.54 µM
same,Potency,[2],"inconclusive: 30.9 µM [inhibitor, partial curve, poor fit]"
same,Potency,[3],"inconclusive: 19.3 µM [falling, partial curve, poor fit]"
same,Potency,[4],"inconclusive: 54.9 µM [inhibitor, partial curve, poor fit]"
Oc1c(I)cc(I)c2cccnc12,Potency,[1],"inconclusive: 16.8 µM [activator, partial curve]"
same,Potency,[2],active: 18.8 µM
same,Potency,[5],"inconclusive: 2.11 µM [cytotoxic, partial curve, poor fit]"
same,activation,[3],inconclusive: 24.6%
same,Potency,[6],inactive
same,Potency,[7],inactive
same,"ratio activity, negative = inhibition",[8],inconclusive: -55.2%
same,Potency,[9],"inconclusive: 33.5 µM [activator, partial curve, poor fit]"
same,Potency,[10],active: 21.3 µM
same,Potency,[11],"inconclusive: 18.8 µM [cytotoxic, partial curve, poor fit]"
c1cc(C(c2ccc(OCC3CO3)cc2)C(c2ccc(OCC3CO3)cc2)c2ccc(OCC3CO3)cc2)ccc1OCC1CO1 (centres undefined),Potency,[1],"inconclusive: 12.7 µM [activator, partial curve, poor fit] and inconclusive: 7.69 µM [activator, full curve, poor fit]"
same,Potency,[12],"inconclusive: 22.7 µM [fluorescent, full curve, poor fit] and inconclusive: 21.9 µM [fluorescent, partial curve]"
same,Potency,[2],"inconclusive: 5.7 µM [fluorescent, full curve] and inconclusive: 38.9 µM [fluorescent, partial curve]"
same,Potency,[3],"inconclusive: 22.5 µM [rising, partial curve, poor fit] and inconclusive: 19.3 µM [rising, partial curve, poor fit]"
same,Potency,[13],"inconclusive: 8.06 µM [rising, full curve] and inconclusive: 6.16 µM [rising, full curve]"
same,Potency,[8],"inconclusive: 5.08 µM [fluorescent, partial curve, poor fit] and inconclusive: 38.9 µM [fluorescent, partial curve]"
same,"viability change, negative = cytotoxic",[14]; at 62.6 µM (top of the series),inconclusive: 24.7%
same,"viability change, negative = cytotoxic",[14]; at 81.1 µM (top of the series),inconclusive: 32.7%
same,Potency,[15],"inconclusive: 8.7 µM [fluorescent, full curve]"
same,activation,[15],inconclusive: -0.0479% [at 81.1 µM]
O=C(/C=C/c1ccccc1)OCc1ccccc1,Potency,[1],"inconclusive: 26.6 µM [activator, partial curve]"
same,Potency,[2],"inconclusive: 11.9 µM [activator, partial curve, poor fit]"
same,"ratio activity, negative = inhibition",[2],inconclusive: 15.5%
same,Potency,[3],"inconclusive: 30.6 µM [rising, partial curve] and inconclusive: 11.9 µM [rising, partial curve]"
same,Potency,[8],inactive
O=C=Nc1cccc(C(F)(F)F)c1,Potency,[1],"inconclusive: 15.2 µM [activator, partial curve]"
same,"ratio activity, negative = inhibition",[2],inconclusive: -23.8%
same,"activity change, negative = cytotoxicity",[5],inconclusive: -33.6% [cytotoxic]
same,Potency,[3],inconclusive: 68.1 µM [single point]
same,Potency,[6],"inconclusive: 19.4 µM [cytotoxic, single point]"
same,Potency,[7],"inconclusive: 54.6 µM [cytotoxic, single point]"
same,Potency,"[14]; viability change, negative = cytotoxic: at 62.6 µM (top of the series) unless noted","inconclusive: 17.3 µM [cytotoxic, partial curve]"
same,Potency,[16],"inconclusive: 61.2 µM [falling, single point]"
same,Potency,[11],"inconclusive: 54.6 µM [cytotoxic, single point]"
C=C(C)C(=O)OCCCCCCCCCCCCC,Potency,[1],inactive
same,Potency,[2],inactive
same,Potency,[5],inactive
same,Potency,[7],"inconclusive: 0.965 µM [cytotoxic, full curve, poor fit]"
same,Potency,[11],inactive
CCCCCCOc1ccccc1C(N)=O,Potency,[1],"inconclusive: 16.8 µM [activator, partial curve]"
same,Potency,[2],inactive
same,Potency,[3],"inconclusive: 26.6 µM [rising, single point]"
O=c1c(-c2ccc(O)cc2)coc2cc(O)cc(O)c12,Potency,[1],"inconclusive: 13.3 µM [activator, partial curve] and active: 12.2 µM"
same,activation,[12],inconclusive: -12.6%
same,activation,[13],inconclusive: -4.2% and inconclusive: -7.93%
same,Potency,[11],"inconclusive: 19.5 µM [cytotoxic, partial curve, poor fit]"
O=S(=O)(Oc1ccc(Cl)cc1Cl)c1ccccc1,Potency,[1],"inconclusive: 55.4 µM [activator, partial curve]"
same,Potency,[2],inactive
same,"activity change, negative = cytotoxicity",[5],inconclusive: -33.2% [cytotoxic] [at 81.1 µM]
same,Potency,[3],inactive
same,Potency,[7],inactive
same,Potency,[10],inactive
